Results on 44 compounds are retold here after article PMC4336329 (PLoS ONE, 2015).

About 14,000 (4.5%) of roughly 310,000 compounds showed an effect of 50% or more. The effect is printed as a negative number. This is one part of the list.
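Note: peak tail current of the secondary pulse compared with the same well before compound.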

Sequence of human ether-à-go-go-related gene (hERG) potassium channel (Q12809 whole entry, looked up): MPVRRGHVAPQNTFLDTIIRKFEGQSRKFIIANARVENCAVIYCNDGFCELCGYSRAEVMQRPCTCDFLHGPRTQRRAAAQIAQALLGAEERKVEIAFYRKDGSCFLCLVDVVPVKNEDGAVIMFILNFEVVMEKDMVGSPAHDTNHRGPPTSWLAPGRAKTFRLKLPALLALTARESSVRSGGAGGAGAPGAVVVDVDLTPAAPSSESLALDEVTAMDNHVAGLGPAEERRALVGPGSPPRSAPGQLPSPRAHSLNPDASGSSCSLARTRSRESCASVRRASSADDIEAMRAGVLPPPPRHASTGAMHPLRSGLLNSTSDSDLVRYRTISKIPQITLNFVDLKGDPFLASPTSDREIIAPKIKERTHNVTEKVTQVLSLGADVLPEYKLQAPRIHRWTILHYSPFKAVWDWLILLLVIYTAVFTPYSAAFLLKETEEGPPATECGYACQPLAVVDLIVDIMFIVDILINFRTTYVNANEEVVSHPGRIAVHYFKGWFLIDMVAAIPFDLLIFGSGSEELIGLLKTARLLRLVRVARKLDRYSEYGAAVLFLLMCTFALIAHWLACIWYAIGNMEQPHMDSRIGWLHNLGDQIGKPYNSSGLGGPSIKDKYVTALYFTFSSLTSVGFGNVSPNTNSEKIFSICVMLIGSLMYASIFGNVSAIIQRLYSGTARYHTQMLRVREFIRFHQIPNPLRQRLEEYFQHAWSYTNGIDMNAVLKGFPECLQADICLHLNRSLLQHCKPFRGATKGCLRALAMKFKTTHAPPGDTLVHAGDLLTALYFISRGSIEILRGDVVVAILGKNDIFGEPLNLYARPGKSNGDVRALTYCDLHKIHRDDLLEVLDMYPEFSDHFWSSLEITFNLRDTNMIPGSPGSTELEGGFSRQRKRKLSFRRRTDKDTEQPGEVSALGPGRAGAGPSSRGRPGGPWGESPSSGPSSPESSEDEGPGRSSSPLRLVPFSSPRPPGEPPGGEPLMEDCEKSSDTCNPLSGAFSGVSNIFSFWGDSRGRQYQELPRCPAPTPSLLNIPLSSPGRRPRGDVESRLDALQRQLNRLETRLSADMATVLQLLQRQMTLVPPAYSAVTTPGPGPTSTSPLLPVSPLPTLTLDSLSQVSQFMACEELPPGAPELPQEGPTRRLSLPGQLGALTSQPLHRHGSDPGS

The assay addresses human ether-à-go-go-related gene (hERG) potassium channel (human, UniProt Q12809). In words: primary screen, population patch clamp on CHO cells stably expressing hERG.
Consider `CCCCN(CC)CCNC(=O)c1cc2c(=O)n(CC)c3ccccc3c2s1`, for which the “hERG current change (%, negative = inhibition) at 10uM” value is reported as -35.5%.

In the case of `Cc1nc(Cl)sc1C(=O)Nc1cccc2ccccc12`, the “hERG current change (%, negative = inhibition) at 10uM” value is given as -11.3%.

For the compound `CC(=O)Nc1ccc(Cc2nc3c([nH]2)c(=O)n(C)c(=O)n3C)cc1`, the “hERG current change (%, negative = inhibition) at 10uM” value worked out at 21%.

`COc1ccccc1C(=O)N/C(=C\c1cn(C)c2ccccc12)C(=O)NCCCN1CCOCC1`: the “hERG current change (%, negative = inhibition) at 10uM” value is given as -8.52%.

With `Nc1nc(-c2ccc(Cl)cc2)nn1C(=O)c1cccs1`, the “hERG current change (%, negative = inhibition) at 10uM” value worked out at 14.1%.

With `CCOC(=O)c1[nH]c2ccc(OCC)cc2c1NC(=O)CN1CCC2(CC1)OCCO2`, the “hERG current change (%, negative = inhibition) at 10uM” value is reported as -25.7%.

For `O=C(O)CNS(=O)(=O)Cc1ccccc1`, the “hERG current change (%, negative = inhibition) at 10uM” value turned out to be 26.9%.

Turning to `O=C(NCc1c(O)ccc2ccccc12)c1ccccc1`, the “hERG current change (%, negative = inhibition) at 10uM” value was 12%.

As for `NC(N)=NS(=O)(=O)c1ccc(NC(=S)Nc2ccc(F)cc2)cc1`, the “hERG current change (%, negative = inhibition) at 10uM” value is reported as 16.7%.

Turning to `Cc1cc(Cl)c(S(=O)(=O)Nc2ccon2)cc1OCC(=O)NC1CCCCC1`, the “hERG current change (%, negative = inhibition) at 10uM” value worked out at 12.4%.

As for `Cc1ccc(OCc2nnc(SCC(=O)Nc3ccc4c(c3)OCO4)n2C)cc1`, the “hERG current change (%, negative = inhibition) at 10uM” value was -15.7%.

Consider `O=C(Cc1ccccc1)N1CCC(C(=O)N2CCN(c3ccc(F)cc3)CC2)CC1`, for which the “hERG current change (%, negative = inhibition) at 10uM” value is -56.6%.

Turning to `CCOc1ccc(NC2=CC(=O)CC(c3ccco3)C2)cc1` (centres unmarked), the “hERG current change (%, negative = inhibition) at 10uM” value was -12.5%.

On to `Cn1c(=O)c2[nH]c(CN(Cc3ccccc3)Cc3ccccc3)nc2n(C)c1=O`, for which the “hERG current change (%, negative = inhibition) at 10uM” value is on record as -1.87%.

On to `O=C(Cc1ccccc1)N1CCN(Cc2ccc(F)cc2)CC1.O=C(O)C(=O)O`, for which the “hERG current change (%, negative = inhibition) at 10uM” value amounted to 2.38%.

As to `CCN1CCN(c2nc3c(c(=O)n(C)c(=O)n3C)n2Cc2cccc3ccccc23)CC1`, the “hERG current change (%, negative = inhibition) at 10uM” value is given as -24.1%.

As for `O=C(COCc1ccccc1)N[C@@H](Cc1ccc(O)cc1)C(=O)O`, the “hERG current change (%, negative = inhibition) at 10uM” value is 9.11%.

For the compound `COC(=O)[C@H]1C[C@H]1[C@@H](NC(=O)c1ccc[nH]1)c1ccccc1`, the “hERG current change (%, negative = inhibition) at 10uM” value is given as -12.4%.

In the case of `CCOC(=O)Nc1ccc2c(c1)N(C(=O)CN1CCN(C)CC1)c1ccccc1CC2.Cl`, the “hERG current change (%, negative = inhibition) at 10uM” value is given as -1.95%.

For the compound `Cc1ccc(S(=O)(=O)NNC(=O)c2ccccc2O)cc1`, the “hERG current change (%, negative = inhibition) at 10uM” value is 4.23%.

On to `O=C(CCC(=O)Nc1ccc(F)cc1)N/N=C/c1cccnc1`, for which the “hERG current change (%, negative = inhibition) at 10uM” value was 17.8%.

As for `COc1ccc(CNC(=O)c2cc(C3CC3)on2)cc1`, the “hERG current change (%, negative = inhibition) at 10uM” value amounted to 1.82%.

In the case of `CCOC(=O)c1cc2c(=O)n3cccc(C)c3nc2n(CCCOC)c1=NC(=O)c1cccnc1`, the “hERG current change (%, negative = inhibition) at 10uM” value is recorded as -78.6%.

As to `Cc1cc(=O)n2c3ccccc3n(C)c2n1`, the “hERG current change (%, negative = inhibition) at 10uM” value came to 9.7%.

In the case of `CCOC(=O)c1ccccc1NC(=O)COC(=O)CN1C(=O)C2CC=CCC2C1=O` (centres unmarked), the “hERG current change (%, negative = inhibition) at 10uM” value is on record as -2.8%.

With `CCC(C)NS(=O)(=O)c1ccc(NC(=O)C(Sc2ccccc2)c2ccccc2)cc1` (centres unmarked), the “hERG current change (%, negative = inhibition) at 10uM” value is 2.72%.

In the case of `O=C(CSc1nnc(COc2cccc3cccnc23)o1)N1CCc2ccccc21`, the “hERG current change (%, negative = inhibition) at 10uM” value stood at 17.1%.

In the case of `CCOC(=O)Cc1csc(NC(=O)CSc2nnc(C3CC3)n2C)n1`, the “hERG current change (%, negative = inhibition) at 10uM” value worked out at 1.31%.

Consider `COc1cccc(C=O)c1OCCN1C(=O)c2ccccc2C1=O`, for which the “hERG current change (%, negative = inhibition) at 10uM” value amounted to 4%.

For `O=C(NCc1cccnc1)c1cccc(NC(=O)c2ccco2)c1`, the “hERG current change (%, negative = inhibition) at 10uM” value is -1.86%.

On to `COc1ccc(C(=O)OCC(=O)NC(=O)NC(C)C)cc1OC`, for which the “hERG current change (%, negative = inhibition) at 10uM” value is listed as 10.9%.

In the case of `O=C(NC1CCCc2c1cnn2-c1ccccc1F)c1ccccc1N1CCOCC1` (centres unmarked), the “hERG current change (%, negative = inhibition) at 10uM” value was -36.3%.

In the case of `CCC(c1ccc(O)cc1)C(CC)c1ccc(O)cc1` (centres unmarked), the “hERG current change (%, negative = inhibition) at 10uM” value is 6.02%.

Take `O=C(c1ccc(COc2ccc(F)cc2)o1)n1cccn1`: the “hERG current change (%, negative = inhibition) at 10uM” value was 4.97%.

Take `O=C(CSc1nc(-c2ccccc2)c(-c2ccccc2)[nH]1)N1CCN(S(=O)(=O)c2ccccc2)CC1`: the “hERG current change (%, negative = inhibition) at 10uM” value came out at 1.73%.

For `O=C(CCn1c(=O)oc2ccccc21)NCCCN1CCN(c2ccc(F)cc2)CC1`, the “hERG current change (%, negative = inhibition) at 10uM” value is on record as -66.2%.

Consider `CN(CC(=O)Nc1ccccc1Cl)CC(=O)Nc1c(F)cccc1F`, for which the “hERG current change (%, negative = inhibition) at 10uM” value was 14.4%.

For the compound `O=C(CCCN1C(=O)/C(=C/c2ccccc2)SC1=S)N1CCOCC1`, the “hERG current change (%, negative = inhibition) at 10uM” value is -30.1%.

Consider `CCOC(=O)c1c(C)[nH]c(C)c1C(=O)COC(=O)c1nc2nccc(C)n2n1`, for which the “hERG current change (%, negative = inhibition) at 10uM” value is 24.8%.

`Cc1ccc(NC2CC(=O)N(c3ccc(N4CCCCC4)cc3)C2=O)cc1` (centres unmarked): the “hERG current change (%, negative = inhibition) at 10uM” value worked out at 21.8%.

As for `O=C(c1cc2nc(-c3ccccc3)cc(-c3ccccc3)n2n1)N1CCN(C(=O)c2ccco2)CC1`, the “hERG current change (%, negative = inhibition) at 10uM” value is recorded as -56.9%.

`COc1ccc(SCc2noc(C(=O)NCC3CCCO3)c2C(=O)O)cc1` (centres unmarked): the “hERG current change (%, negative = inhibition) at 10uM” value is recorded as 9.57%.

For the compound `O=C(O)C1CCN(C(=O)COc2ccc3c4c(c(=O)oc3c2)CCC4)CC1`, the “hERG current change (%, negative = inhibition) at 10uM” value was found to be 5.34%.

Regarding `CC1CCCC(C)N1/N=C/c1ccc(C#N)cc1` (centres unmarked), the “hERG current change (%, negative = inhibition) at 10uM” value is recorded as -15.2%.
